Data from the supplement of paper PMC8728848.
The other results are listed elsewhere or left out.

What was measured:
Test in all cases: glycan array binding signal (z-score within array); higher = stronger binding
Settings in all cases: glycan notation: IUPAC condensed, linker removed
[1] = target: GlcNAc(b1-2)Man(a1-3)[GlcNAc(b1-2)Man(a1-6)]Man(b1-4)GlcNAc(b1-4)GlcNAc
Procedure, shortened: (§1)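 Glycan array data came from 3228 arrays in the Consortium for Functional Glycomics database, and only arrays with an available protein sequence were kept. Glycan names were put into IUPAC-condensed notation, and columns mapping to the same glycan were averaged. The binding signal is a within-array Z-score, averaged across arrays of one protein sequence run at different concentrations or buffers and across linkers. A negative Z-score can be read as non-binding.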

[2] = target: GlcNAc(b1-2)Man(a1-3)[GlcNAc(b1-2)Man(a1-6)]Man(b1-4)GlcNAc(b1-4)[Fuc(a1-6)]GlcNAc
Procedure, shortened: as §1

[3] = target: GlcNAc(b1-2)Man(a1-3)[GlcNAc(b1-4)][GlcNAc(b1-2)Man(a1-6)]Man(b1-4)GlcNAc(b1-4)GlcNAc
Procedure, shortened: as §1

[4] = target: GlcNAc(b1-2)Man(a1-3)[GlcNAc(b1-4)][GlcNAc(b1-2)Man(a1-6)]Man(b1-4)GlcNAc(b1-4)[Fuc(a1-6)]GlcNAc
Procedure, shortened: as §1

[5] = target: GlcNAc(b1-2)[GlcNAc(b1-4)]Man(a1-3)[GlcNAc(b1-2)Man(a1-6)]Man(b1-4)GlcNAc(b1-4)GlcNAc
Procedure, shortened: as §1

[6] = target: GlcNAc(b1-2)[GlcNAc(b1-4)]Man(a1-3)[GlcNAc(b1-4)][GlcNAc(b1-2)Man(a1-6)]Man(b1-4)GlcNAc(b1-4)GlcNAc
Procedure, shortened: as §1

[7] = target: GlcNAc(b1-2)[GlcNAc(b1-4)]Man(a1-3)[GlcNAc(b1-4)][GlcNAc(b1-2)[GlcNAc(b1-6)]Man(a1-6)]Man(b1-4)GlcNAc(b1-4)GlcNAc
Procedure, shortened: as §1

[8] = target: GlcNAc(b1-2)[GlcNAc(b1-4)]Man(a1-3)[GlcNAc(b1-4)][GlcNAc(b1-2)[GlcNAc(b1-6)]Man(a1-6)]Man(b1-4)GlcNAc(b1-4)[Fuc(a1-6)]GlcNAc
Procedure, shortened: as §1

[9] = target: GlcNAc(b1-2)[GlcNAc(b1-6)]Man(a1-6)[GlcNAc(b1-2)Man(a1-3)]Man(b1-4)GlcNAc(b1-4)GlcNAc
Procedure, shortened: as §1

[10] = target: GlcNAc(b1-2)[GlcNAc(b1-6)]Man(a1-6)[GlcNAc(b1-2)Man(a1-3)]Man(b1-4)GlcNAc(b1-4)[Fuc(a1-6)]GlcNAc
Procedure, shortened: as §1

[11] = target: GlcNAc(b1-2)[GlcNAc(b1-6)]Man(a1-6)[GlcNAc(b1-4)][GlcNAc(b1-2)Man(a1-3)]Man(b1-4)GlcNAc(b1-4)GlcNAc
Procedure, shortened: as §1

[12] = target: GlcNAc(b1-3)Fuc
Procedure, shortened: as §1

[13] = target: GlcNAc(b1-3)Gal
Procedure, shortened: as §1

[14] = target: GlcNAc(b1-3)Gal(b1-3)GalNAc
Procedure, shortened: as §1

[15] = target: GlcNAc(b1-3)Gal(b1-4)Glc
Procedure, shortened: as §1

[16] = target: GlcNAc(b1-3)Gal(b1-4)GlcNAc
Procedure, shortened: as §1

[17] = target: GlcNAc(b1-3)Gal(b1-4)GlcNAc(b1-2)Man(a1-3)[GlcNAc(b1-3)Gal(b1-4)GlcNAc(b1-2)Man(a1-6)]Man(b1-4)GlcNAc(b1-4)GlcNAc
Procedure, shortened: as §1

[18] = target: GlcNAc(b1-3)Gal(b1-4)GlcNAc(b1-2)Man(a1-3)[GlcNAc(b1-3)Gal(b1-4)GlcNAc(b1-2)Man(a1-6)]Man(b1-4)GlcNAc(b1-4)[Fuc(a1-6)]GlcNAc
Procedure, shortened: as §1

[19] = target: GlcNAc(b1-3)Gal(b1-4)GlcNAc(b1-2)[GlcNAc(b1-3)Gal(b1-4)GlcNAc(b1-6)]Man(a1-6)[GlcNAc(b1-3)Gal(b1-4)GlcNAc(b1-2)Man(a1-3)]Man(b1-4)GlcNAc(b1-4)GlcNAc
Procedure, shortened: as §1

[20] = target: GlcNAc(b1-3)Gal(b1-4)GlcNAc(b1-3)Gal(b1-4)GlcNAc
Procedure, shortened: as §1

[21] = target: GlcNAc(b1-3)Gal(b1-4)GlcNAc(b1-3)Gal(b1-4)GlcNAc(b1-2)Man(a1-3)[GlcNAc(b1-3)Gal(b1-4)GlcNAc(b1-3)Gal(b1-4)GlcNAc(b1-2)Man(a1-6)]Man(b1-4)GlcNAc(b1-4)GlcNAc
Procedure, shortened: as §1

[22] = target: GlcNAc(b1-3)Gal(b1-4)GlcNAc(b1-3)Gal(b1-4)GlcNAc(b1-2)Man(a1-3)[GlcNAc(b1-3)Gal(b1-4)GlcNAc(b1-3)Gal(b1-4)GlcNAc(b1-2)Man(a1-6)]Man(b1-4)GlcNAc(b1-4)[Fuc(a1-6)]GlcNAc
Procedure, shortened: as §1

[23] = target: GlcNAc(b1-3)Gal(b1-4)GlcNAc(b1-3)Gal(b1-4)GlcNAc(b1-2)[GlcNAc(b1-3)Gal(b1-4)GlcNAc(b1-3)Gal(b1-4)GlcNAc(b1-6)]Man(a1-6)[GlcNAc(b1-3)Gal(b1-4)GlcNAc(b1-3)Gal(b1-4)GlcNAc(b1-2)Man(a1-3)]Man(b1-4)GlcNAc(b1-4)[Fuc(a1-6)]GlcNAc
Procedure, shortened: as §1

[24] = target: GlcNAc(b1-3)Gal(b1-4)GlcNAc(b1-3)Gal(b1-4)GlcNAc(b1-3)Gal(b1-4)GlcNAc(b1-2)Man(a1-3)[GlcNAc(b1-3)Gal(b1-4)GlcNAc(b1-3)Gal(b1-4)GlcNAc(b1-3)Gal(b1-4)GlcNAc(b1-2)Man(a1-6)]Man(b1-4)GlcNAc(b1-4)GlcNAc
Procedure, shortened: as §1

[25] = target: GlcNAc(b1-3)Gal(b1-4)GlcNAc(b1-3)Gal(b1-4)GlcNAc(b1-3)Gal(b1-4)GlcNAc(b1-2)Man(a1-3)[GlcNAc(b1-3)Gal(b1-4)GlcNAc(b1-3)Gal(b1-4)GlcNAc(b1-3)Gal(b1-4)GlcNAc(b1-2)Man(a1-6)]Man(b1-4)GlcNAc(b1-4)[Fuc(a1-6)]GlcNAc
Procedure, shortened: as §1

[26] = target: GlcNAc(b1-3)Gal(b1-4)GlcNAc(b1-3)Gal(b1-4)GlcNAc(b1-3)Gal(b1-4)GlcNAc(b1-2)[GlcNAc(b1-3)Gal(b1-4)GlcNAc(b1-3)Gal(b1-4)GlcNAc(b1-3)Gal(b1-4)GlcNAc(b1-6)]Man(a1-6)[GlcNAc(b1-3)Gal(b1-4)GlcNAc(b1-3)Gal(b1-4)GlcNAc(b1-3)Gal(b1-4)GlcNAc(b1-2)Man(a1-3)]Man(b1-4)GlcNAc(b1-4)[Fuc(a1-6)]GlcNAc
Procedure, shortened: as §1

[27] = target: GlcNAc(b1-3)Gal(b1-4)GlcNAc(b1-3)Gal(b1-4)GlcNAc(b1-3)Gal(b1-4)GlcNAc(b1-3)Gal(b1-4)GlcNAc(b1-2)Man(a1-3)[GlcNAc(b1-3)Gal(b1-4)GlcNAc(b1-3)Gal(b1-4)GlcNAc(b1-3)Gal(b1-4)GlcNAc(b1-3)Gal(b1-4)GlcNAc(b1-2)Man(a1-6)]Man(b1-4)GlcNAc(b1-4)GlcNAc
Procedure, shortened: as §1

[28] = target: GlcNAc(b1-3)Gal(b1-4)GlcNAc(b1-3)Gal(b1-4)GlcNAc(b1-3)Gal(b1-4)GlcNAc(b1-3)Gal(b1-4)GlcNAc(b1-2)Man(a1-3)[GlcNAc(b1-3)Gal(b1-4)GlcNAc(b1-3)Gal(b1-4)GlcNAc(b1-3)Gal(b1-4)GlcNAc(b1-3)Gal(b1-4)GlcNAc(b1-2)Man(a1-6)]Man(b1-4)GlcNAc(b1-4)[Fuc(a1-6)]GlcNAc
Procedure, shortened: as §1

[29] = target: GlcNAc(b1-3)Gal(b1-4)GlcNAc(b1-3)Gal(b1-4)GlcNAc(b1-3)Gal(b1-4)GlcNAc(b1-3)Gal(b1-4)GlcNAc(b1-2)[GlcNAc(b1-3)Gal(b1-4)GlcNAc(b1-3)Gal(b1-4)GlcNAc(b1-3)Gal(b1-4)GlcNAc(b1-3)Gal(b1-4)GlcNAc(b1-6)]Man(a1-6)[GlcNAc(b1-3)Gal(b1-4)GlcNAc(b1-3)Gal(b1-4)GlcNAc(b1-3)Gal(b1-4)GlcNAc(b1-3)Gal(b1-4)GlcNAc(b1-2)Man(a1-3)]Man(b1-4)GlcNAc(b1-4)[Fuc(a1-6)]GlcNAc
Procedure, shortened: as §1

[30] = target: GlcNAc(b1-3)Gal(b1-4)GlcNAc(b1-3)Gal(b1-4)GlcNAc(b1-3)GalNAc
Procedure, shortened: as §1

[31] = target: GlcNAc(b1-3)Gal(b1-4)GlcNAc(b1-3)GalNAc
Procedure, shortened: as §1

[32] = target: GlcNAc(b1-3)Gal(b1-4)GlcNAc(b1-3)[GlcNAc(b1-3)Gal(b1-4)GlcNAc(b1-3)]GalNAc
Procedure, shortened: as §1

[33] = target: GlcNAc(b1-3)Gal(b1-4)GlcNAc(b1-6)[Gal(b1-3)]GalNAc
Procedure, shortened: as §1

[34] = target: GlcNAc(b1-3)Gal(b1-4)GlcNAc(b1-6)[GlcNAc(b1-3)Gal(b1-3)]GalNAc
Procedure, shortened: as §1

[35] = target: GlcNAc(b1-3)Gal(b1-4)GlcNAc(b1-6)[GlcNAc(b1-3)]Gal(b1-4)GlcNAc
Procedure, shortened: as §1

[36] = target: GlcNAc(b1-3)GalNAc
Procedure, shortened: as §1

[37] = target: GlcNAc(b1-3)Man
Procedure, shortened: as §1

B1: CPA (Cicer arietinum) (protein)
chain: MAFSYLNLVLVTLTTLFFLQTTKVKSQKSVSFHITNFTISRPSITLQGTAEFLPNVLLLNDIEHPVFVVGRALYSKPITLWNNKTGKVASFVTSFTFDVQDLKKTVPGHGLVFFLAPSGSEIPFSSDGGNLGVVDGKNAFNRFVGVEFDNFVNSWDPKYSHVGINVNSLISTKTVKWNRVSGELVKVSIVYDSVSTTLTVIVTYKNGQISILSQLVDLKAVLPDTVNIGFSASTTLVSPRQLHNIHSWSFTSTFET
Q: With B1 as the binder, how does the “glycan array binding signal (z-score)” value [1] read?
A: -0.337

Q: What about the “glycan array binding signal (z-score)” value [2] of the same binder?
A: -0.414

Q: What about the “glycan array binding signal (z-score)” value [3] of the same binder?
A: 0.181

Q: What about the “glycan array binding signal (z-score)” value [4] of the same binder?
A: 0.163

Q: And the “glycan array binding signal (z-score)” value [5]?
A: -0.456

Q: And the “glycan array binding signal (z-score)” value [6]?
A: -0.545

Q: And the “glycan array binding signal (z-score)” value [7]?
A: -0.746

Q: And the “glycan array binding signal (z-score)” value [8]?
A: -0.774

Q: What about the “glycan array binding signal (z-score)” value [9] of the same binder?
A: -0.319

Q: What about the “glycan array binding signal (z-score)” value [10] of the same binder?
A: -0.481

Q: What about the “glycan array binding signal (z-score)” value [11] of the same binder?
A: -0.162

Q: What about the “glycan array binding signal (z-score)” value [12] of the same binder?
A: -0.304

Q: And the “glycan array binding signal (z-score)” value [13]?
A: -0.386

Q: And the “glycan array binding signal (z-score)” value [14]?
A: -0.568

Q: What about the “glycan array binding signal (z-score)” value [15] of the same binder?
A: -0.562

Q: What about the “glycan array binding signal (z-score)” value [16] of the same binder?
A: -0.24

Q: And the “glycan array binding signal (z-score)” value [17]?
A: -0.355

Q: What about the “glycan array binding signal (z-score)” value [18] of the same binder?
A: 0.428

Q: And the “glycan array binding signal (z-score)” value [19]?
A: 1.13

Q: And the “glycan array binding signal (z-score)” value [20]?
A: 0.393

Q: And the “glycan array binding signal (z-score)” value [21]?
A: 1.58

Q: What about the “glycan array binding signal (z-score)” value [22] of the same binder?
A: -0.054

Q: And the “glycan array binding signal (z-score)” value [23]?
A: 1.27

Q: What about the “glycan array binding signal (z-score)” value [24] of the same binder?
A: 2.39

Q: And the “glycan array binding signal (z-score)” value [25]?
A: 1.3

Q: And the “glycan array binding signal (z-score)” value [26]?
A: 1.44

Q: And the “glycan array binding signal (z-score)” value [27]?
A: 1.11

Q: And the “glycan array binding signal (z-score)” value [28]?
A: 0.525

Q: What about the “glycan array binding signal (z-score)” value [29] of the same binder?
A: 0.812

Q: What about the “glycan array binding signal (z-score)” value [30] of the same binder?
A: -0.322

Q: What about the “glycan array binding signal (z-score)” value [31] of the same binder?
A: -0.569

Q: What about the “glycan array binding signal (z-score)” value [32] of the same binder?
A: -0.654

Q: And the “glycan array binding signal (z-score)” value [33]?
A: -0.405

Q: And the “glycan array binding signal (z-score)” value [34]?
A: -0.443

Q: And the “glycan array binding signal (z-score)” value [35]?
A: -0.335

Q: And the “glycan array binding signal (z-score)” value [36]?
A: -0.373

Q: And the “glycan array binding signal (z-score)” value [37]?
A: -0.558
